From publication PMC4336329 (PLoS ONE, 2015) come the findings set out here.

Structures are written as SMILES. In all, about 310,000 compounds went through this assay and about 2,200 (0.71%) showed an effect of 50% or more. Effects have a minus sign here. The list shows a part of the results.

human ether-à-go-go-related gene (hERG) potassium channel, sequence (Q12809 whole entry, looked up): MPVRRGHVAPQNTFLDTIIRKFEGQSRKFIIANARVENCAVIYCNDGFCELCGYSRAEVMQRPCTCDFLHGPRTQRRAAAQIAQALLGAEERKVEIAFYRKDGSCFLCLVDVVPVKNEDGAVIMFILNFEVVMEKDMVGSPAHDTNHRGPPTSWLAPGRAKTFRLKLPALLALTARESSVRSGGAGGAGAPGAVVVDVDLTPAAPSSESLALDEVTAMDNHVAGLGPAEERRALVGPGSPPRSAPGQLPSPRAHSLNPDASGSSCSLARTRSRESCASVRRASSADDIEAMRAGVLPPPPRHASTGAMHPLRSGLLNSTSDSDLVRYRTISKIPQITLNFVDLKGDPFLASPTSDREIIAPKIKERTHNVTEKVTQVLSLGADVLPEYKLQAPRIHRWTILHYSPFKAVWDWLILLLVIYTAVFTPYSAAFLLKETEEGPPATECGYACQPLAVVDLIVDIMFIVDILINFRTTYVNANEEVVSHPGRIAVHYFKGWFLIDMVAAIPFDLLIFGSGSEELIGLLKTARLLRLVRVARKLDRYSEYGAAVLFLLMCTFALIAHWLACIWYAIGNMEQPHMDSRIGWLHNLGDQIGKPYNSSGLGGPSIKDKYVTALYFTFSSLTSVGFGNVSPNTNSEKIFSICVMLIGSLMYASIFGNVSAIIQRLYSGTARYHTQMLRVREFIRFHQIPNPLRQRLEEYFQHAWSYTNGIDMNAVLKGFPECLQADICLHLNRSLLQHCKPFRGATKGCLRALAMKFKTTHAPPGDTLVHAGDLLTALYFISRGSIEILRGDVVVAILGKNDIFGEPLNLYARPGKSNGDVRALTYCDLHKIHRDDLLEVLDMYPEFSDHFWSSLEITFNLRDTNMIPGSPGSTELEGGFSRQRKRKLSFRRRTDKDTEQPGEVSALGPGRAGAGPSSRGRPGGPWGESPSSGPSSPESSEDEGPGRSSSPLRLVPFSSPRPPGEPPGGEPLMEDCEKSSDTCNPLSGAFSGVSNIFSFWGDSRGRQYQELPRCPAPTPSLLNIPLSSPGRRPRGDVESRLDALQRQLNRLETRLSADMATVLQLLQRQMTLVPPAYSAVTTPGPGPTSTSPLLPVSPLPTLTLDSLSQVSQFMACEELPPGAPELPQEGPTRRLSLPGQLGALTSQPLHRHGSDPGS

The assay addresses human ether-à-go-go-related gene (hERG) potassium channel (human, UniProt Q12809). In words: primary screen, population patch clamp on CHO cells stably expressing hERG.
`O=C(COc1ccccc1)NNc1nc2c(F)cc(F)cc2s1`: the “hERG current change (%, negative = inhibition) at 1uM” value is reported as -14.7%.
The value for `CC(C)c1nnc(SCC(=O)NC2CCCCC2)n1C` was 16.2%; that for `O=C(CCc1ccc(O)cc1)NNC(=S)NCCc1ccccc1` was 10.7%; that for `COc1cc(C2Oc3cc(C4Oc5cc(O)cc(O)c5C(=O)C4O)ccc3OC2CO)ccc1O` (stereo not drawn) was 18.2%.
In the case of `O=C(NCC(=O)N(CCN1CCOCC1)C(C(=O)NC1CCCC1)c1ccccc1)c1cccs1` (stereo not drawn) it was 5.12%; in that of `Cc1cc(C)n2nc(NCc3ccccc3)nc2n1`, -11.8%.
The value for `Cc1ccccc1NC(=O)C1CCN(C2=NS(=O)(=O)c3ccccc32)CC1` was 7.28%.
Regarding `CCN(CC)CC(=O)NCc1cc(-c2ccc(OC)cc2)no1`, the “hERG current change (%, negative = inhibition) at 1uM” value turned out to be 6.12%.
The value for `CC(C)c1ccc(/C=C2\C(=O)N(CCN3CCOCC3)C(=S)N2C)cc1` was 11.4%.
For the molecule `Cc1ccc(/C=N/NC(=O)c2nnn(-c3nonc3N)c2CSc2ccc(Cl)cc2)o1`, the “hERG current change (%, negative = inhibition) at 1uM” value is listed as -3.72%.
As to `N/C(=N\OC(=O)CCCOc1ccc(Cl)cc1Cl)c1ccccn1`, the “hERG current change (%, negative = inhibition) at 1uM” value is listed as 3.47%.
For `O=C(Nc1ccc2c(c1)CCC2)c1ccc(F)c(S(=O)(=O)N2CCOCC2)c1`, the “hERG current change (%, negative = inhibition) at 1uM” value was 0.118%.
The value for `O=C(CCCCCC(=O)N(CCO)CCO)N(CCO)CCO` was -2.52%; that for `COc1ccc(C)cc1N(C(=O)COc1ccccc1)c1nc2ccccc2s1` was 18.4%; that for `CCc1ccc(OCc2nnc(SCC(=O)NCC3CCCO3)n2C)cc1` (stereo not drawn) was -1.08%.
In the case of `CCOC(=O)C1=C(C)NC2=C(C(=O)C(C(=O)OCC)C(c3cccc(OC)c3)C2)C1c1ccccn1` (stereo not drawn) it was 12.4%.
The value for `CCCn1c(SCC(=O)NC(C)c2ccccc2)n[nH]c1=O` (stereo not drawn) was 17.2%; that for `C/C(Cn1cnc([N+](=O)[O-])n1)=N\NC(=O)c1ccncc1` was 14.6%.
On to `CC(=O)N1CCOc2ccc(S(=O)(=O)N3CCCCC3)cc21`, for which the “hERG current change (%, negative = inhibition) at 1uM” value turned out to be 15.1%.
Take `COc1ccc(/C=C/C(=O)OCC(=O)NCCC2=CCCCC2)cc1OC`: the “hERG current change (%, negative = inhibition) at 1uM” value came out at 3.78%.
Turning to `COc1ccccc1NC(=O)c1ccc(COc2ccccc2OC)o1`, the “hERG current change (%, negative = inhibition) at 1uM” value was found to be 0.973%.
The value for `CC1CCCN(CCOc2ccc(Br)cc2)C1` (stereo not drawn) was -21%; that for `O=C(Nc1ccccc1OC(F)F)c1cc2c(s1)CCC2` was 6.76%; that for `C=CCOc1ccc2c(c1)c(S(=O)(=O)c1ccc(C)cc1)cn2COC` was 11.3%.
As to `O=C(CSc1nnc(-c2cccnc2)o1)c1cc2ccccc2oc1=O`, the “hERG current change (%, negative = inhibition) at 1uM” value amounted to 17%.
The value for `CC(C)(C)c1ccc(CNC(=O)C2CCCN2C(=O)Nc2ccccc2)cc1` (stereo not drawn) was -4.44%; that for `COc1ccc2c(c1)C=C(CN1CCN(C3CCCC3)C(CCO)C1)CO2` (stereo not drawn) was -41.1%; that for `CNC(=S)N(CCc1ccc(OC)c(OC)c1)C1CC(=O)N(c2ccccc2)C1=O` (stereo not drawn) was 9.94%.
The value for `COc1ccc2nc(SCC(=O)c3c(N)n(C4CC4)c(=O)[nH]c3=O)[nH]c2c1` was 10.8%; that for `CCc1c(C)c2ccc(O)c(CN3CCCC3)c2oc1=O` was 13.6%; that for `COc1ccc(N2C(=O)C(CC(=O)Nc3ccc(Cl)cc3)N(NC(=O)c3cccc(F)c3)C2=S)cc1` (stereo not drawn) was 14.6%.
Take `COCCCNC(=O)CC(NCCCOC)C(=O)O` (stereo not drawn): the “hERG current change (%, negative = inhibition) at 1uM” value amounted to 8.81%.
As for `CCCC1=C(C(=O)OCC)C(c2cccs2)n2ncnc2N1` (stereo not drawn), the “hERG current change (%, negative = inhibition) at 1uM” value came out at 9.85%.
`COc1ccc(CN2CCN(c3cccc(C)c3C)CC2)cc1OC`: the “hERG current change (%, negative = inhibition) at 1uM” value is on record as -61.1%.
In the case of `CC1CC(N(C(=O)C2CC2)c2ccccc2)c2ccccc2N1C(=O)C1CC1` (stereo not drawn) it was 3.81%; in that of `Cc1ccc(C(=O)O)cc1NC(=O)CN1C(=O)C2C3c4ccccc4C(Br)(c4ccccc43)C2C1=O` (stereo not drawn), 13.1%; in that of `COc1cc(/C=C(\C#N)C(=O)NC2CCCCC2C)ccc1OS(=O)(=O)c1ccc(C)cc1` (stereo not drawn), 3.16%.
The value for `O=C1CN(Cc2nc3cc(Cl)ccc3c(=O)[nH]2)CCN1` was 22.9%.
The value for `CC[N+](CC)(CCCCS(=O)(=O)[O-])CCNP1(=O)C=C(c2ccccc2)OC(c2ccccc2)=C1` was 5.87%.
With `Cc1[nH]nc2c1C1(C(=O)Nc3ccc([N+](=O)[O-])cc31)C(C#N)=C(N)O2` (stereo not drawn), the “hERG current change (%, negative = inhibition) at 1uM” value was 13.4%.
In the case of `Cc1ccc(C)c(NC(=O)c2cc3ccccn3n2)c1` it was -5.37%; in that of `Cc1cc(C)c(O)c(-c2cc(C(=O)Nc3cccnc3)[nH]n2)c1`, 5.7%; in that of `O=c1ccc2cc(S(=O)(=O)N3CCN(c4ccccc4)CC3)ccc2o1`, -0.671%.
In the case of `CCCc1cc(=O)[nH]c(SCc2ccccc2)n1` it was 9.6%; in that of `Brc1ccc(-c2nc(-c3ccncc3)no2)o1`, 2.74%.
As to `COc1cc(NC(=O)COc2ccc3c(C)cc(=O)oc3c2C)cc(OC)c1OC`, the “hERG current change (%, negative = inhibition) at 1uM” value was determined as 26.2%.
Take `CCn1c2ccccc2n2c(=O)c(=O)n(CC(=O)Nc3ccc(C(C)C)cc3)nc12`: the “hERG current change (%, negative = inhibition) at 1uM” value was 11%.
As for `Cc1ccc2c(C)nc(/N=C(\N)NC(=O)N3c4ccccc4Sc4ccccc43)nc2c1`, the “hERG current change (%, negative = inhibition) at 1uM” value amounted to 12.9%.
In the case of `COCC(=O)Nc1c(C(=O)Nc2ccccc2OC)oc2ccccc12` it was 1.31%; in that of `NC(=O)Nc1ccccc1C(=O)Nc1ccc2ccccc2c1`, 15.1%; in that of `CN1N=C(C(C)(C)C)CC1=O`, 9.34%.
In the case of `COc1ccc(-n2nc(C(=O)N3CCCCC3)c3ccccc3c2=O)cc1` it was 1.59%; in that of `CCCCNC(=S)NNC(=O)c1c(C)nc2ccccn12`, 16.1%; in that of `COc1cccc(NC(=O)c2ccc(-c3ccccc3[N+](=O)[O-])o2)c1`, -2.99%.
As to `Cc1cccc(Nc2n[nH]c(=S)s2)c1C`, the “hERG current change (%, negative = inhibition) at 1uM” value was found to be 11.6%.
Consider `CCOC(=O)c1sc(NC(=O)CN2C(=O)NC3(CCC(C)CC3)C2=O)c(C(=O)OCC)c1C` (stereo not drawn), for which the “hERG current change (%, negative = inhibition) at 1uM” value is reported as 8.8%.
As to `CCOc1ccc(N=C2SC(C(=O)Nc3ccccc3C#N)C(N)=C2C(=O)Nc2ccc(Cl)cc2)cc1` (stereo not drawn), the “hERG current change (%, negative = inhibition) at 1uM” value is recorded as 14.1%.
With `O=C(CC12CCC(CC1)C2)NCc1ccc2c(c1)OCO2`, the “hERG current change (%, negative = inhibition) at 1uM” value is reported as 11.3%.
Consider `CN1CC(=O)N(CC(=O)N2CCC(Cc3ccccc3)CC2)C1=O`, for which the “hERG current change (%, negative = inhibition) at 1uM” value is given as 11.9%.
`COc1ccc(C(=O)Nc2c3c(nn2-c2ccc(Cl)cc2)CS(=O)(=O)C3)cc1`: the “hERG current change (%, negative = inhibition) at 1uM” value is on record as 12.2%.
Regarding `CC1CCN(c2c(NCC3CCC(C(=O)N4CCc5ccccc5C4)CC3)c(=O)c2=O)CC1` (stereo not drawn), the “hERG current change (%, negative = inhibition) at 1uM” value was 11%.
Take `CC(C)NCC(O)COCCOc1ccc(C(C)(C)C)cc1.Cl` (stereo not drawn): the “hERG current change (%, negative = inhibition) at 1uM” value is -2.27%.
In the case of `CCOc1ccc2nc(N3CCCCCC3)sc2c1` it was -13.2%; in that of `CCOCCCNC(C(=O)Nc1ccc(OC)c(Cl)c1)c1ccccc1` (stereo not drawn), -10.2%; in that of `COc1ccc(-c2sc3cc(OC)c(OC)cc3c2C#CC(C)(C)O)cc1`, 17.8%.
The value for `COc1ccccc1N1CCN(CCC(=O)Nc2ccc(F)cc2)CC1` was 10.2%.
The value for `COc1cccc(C(=O)Nc2ccc(S(=O)(=O)N3CCN(C)CC3)cc2)c1` was 2.57%; that for `O=C(COC(=O)c1ccc(F)cc1)NCCCc1ccccc1` was 4.68%; that for `O=C(c1ccc(S(=O)(=O)Nc2cccc(C(F)(F)F)c2)cc1)N1CCN(c2ccccc2O)CC1` was 0.994%.
In the case of `CC(C)CN(C(=O)c1cccc(S(=O)(=O)N2CCN(Cc3ccccc3)CC2)c1)C1CCS(=O)(=O)C1` (stereo not drawn), the “hERG current change (%, negative = inhibition) at 1uM” value is 6.94%.
The value for `Cc1cc(/C=C2\C(=O)NN(c3ccccc3)C2=O)c(C)n1-c1ccccc1O` was 13%; that for `COc1ccc(O)c(C(=O)CC(=O)c2ccc(F)cc2)c1` was 1.21%.
In the case of `CCCCOC(=O)c1ccc(NC(=O)c2ocnc2C)cc1` it was -2.1%.
In the case of `COc1cc(/C=N/Nc2cccc(C)c2)ccc1OC(=O)c1ccco1`, the “hERG current change (%, negative = inhibition) at 1uM” value stood at 11.2%.
In the case of `Cc1cc(-c2ccc(C)c(S(=O)(=O)NCCc3ccc(S(N)(=O)=O)cc3)c2)on1` it was 23.9%; in that of `Cc1ccc(N2C(=O)N(CC(=O)NCc3ccccc3Cl)C(=O)C2C)cc1` (stereo not drawn), 2.7%; in that of `CN(Cc1ccon1)Cc1cn(C)nc1-c1cccc(Cl)c1`, 11.1%.
The value for `c1ccc(-c2nnc(N3CCOCC3)c3ccccc23)cc1` was 11%; that for `O=C(COc1ccc2ccc(=O)oc2c1)Nc1ccc(CN2CCOCC2)cc1` was 16.9%; that for `CN(Cc1ccccc1)Cc1nc2c(c(=O)n(C)c(=O)n2C)n1Cc1ccc(Cl)cc1` was 5.2%.
Consider `O=C(O)c1ccccc1C(=O)NCCc1c(C(=O)O)[nH]c2ccc(Cl)cc12`, for which the “hERG current change (%, negative = inhibition) at 1uM” value is given as 7.89%.
For `C=CCNc1nc(Nc2ccc(OC)cc2)nc(OC)n1`, the “hERG current change (%, negative = inhibition) at 1uM” value worked out at 1.52%.
The value for `C=CCSc1nnc(NC(=O)c2cccc(S(=O)(=O)N3CCOCC3)c2)s1` was -4.7%; that for `CC(NC(=O)CSc1n[nH]c(=O)n1C1CC1)C12CC3CC(CC(C3)C1)C2` (stereo not drawn) was -0.488%; that for `COc1ccc(N2CCN(c3cc(C)c4ccc(C)cc4n3)CC2)cc1` was 3.1%.
The value for `C[C@@H](CN1C2=NC[C@H](Cc3ccccc3)N2C[C@H]1Cc1ccc(O)cc1)NC(=O)CCC1CCCCC1` was -9.4%; that for `Cc1ccc(-c2cc(=O)c3ccc(Cl)cc3[nH]2)cc1` was 9.03%.
